Consider 89 molecules from PMC4336329 (PLoS ONE, 2015).

In all, about 310,000 compounds went through this assay and about 2,200 (0.71%) showed an effect of 50% or more. The effect is printed as a negative number. The list shows a part of the results.

In the assay the target is human ether-à-go-go-related gene (hERG) potassium channel (human, UniProt Q12809). Put plainly: primary screen, population patch clamp on CHO cells stably expressing hERG.
human ether-à-go-go-related gene (hERG) potassium channel, sequence (Q12809 whole entry, looked up): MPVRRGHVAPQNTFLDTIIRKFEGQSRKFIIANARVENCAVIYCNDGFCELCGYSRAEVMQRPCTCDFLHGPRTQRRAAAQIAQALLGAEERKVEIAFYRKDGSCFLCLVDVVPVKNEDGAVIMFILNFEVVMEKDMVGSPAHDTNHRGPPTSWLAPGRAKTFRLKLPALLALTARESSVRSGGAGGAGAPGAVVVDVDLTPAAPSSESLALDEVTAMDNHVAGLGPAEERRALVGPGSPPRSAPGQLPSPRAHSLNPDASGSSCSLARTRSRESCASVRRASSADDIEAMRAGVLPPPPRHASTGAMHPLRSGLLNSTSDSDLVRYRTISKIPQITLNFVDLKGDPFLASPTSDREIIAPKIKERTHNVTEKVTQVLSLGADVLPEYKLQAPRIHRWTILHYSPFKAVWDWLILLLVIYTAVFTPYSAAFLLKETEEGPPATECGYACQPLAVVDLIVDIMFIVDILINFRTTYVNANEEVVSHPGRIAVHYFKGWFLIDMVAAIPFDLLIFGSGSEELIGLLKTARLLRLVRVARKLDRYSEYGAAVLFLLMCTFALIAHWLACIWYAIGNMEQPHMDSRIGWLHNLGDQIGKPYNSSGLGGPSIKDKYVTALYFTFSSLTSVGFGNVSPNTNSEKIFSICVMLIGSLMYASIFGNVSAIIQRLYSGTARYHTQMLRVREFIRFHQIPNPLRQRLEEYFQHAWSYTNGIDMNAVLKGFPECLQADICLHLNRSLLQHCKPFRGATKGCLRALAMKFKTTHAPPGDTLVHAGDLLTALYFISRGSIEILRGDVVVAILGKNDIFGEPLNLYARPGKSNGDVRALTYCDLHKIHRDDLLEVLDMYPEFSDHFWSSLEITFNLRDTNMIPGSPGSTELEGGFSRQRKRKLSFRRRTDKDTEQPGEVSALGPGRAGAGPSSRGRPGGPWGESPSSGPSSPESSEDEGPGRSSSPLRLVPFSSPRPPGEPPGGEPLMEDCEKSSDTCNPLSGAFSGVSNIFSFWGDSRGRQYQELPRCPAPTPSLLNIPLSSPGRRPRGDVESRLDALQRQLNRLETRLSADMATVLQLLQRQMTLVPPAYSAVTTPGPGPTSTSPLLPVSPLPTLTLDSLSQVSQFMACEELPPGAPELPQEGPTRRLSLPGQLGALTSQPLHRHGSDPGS
On to `CC1=C(C#N)C(NC(=O)C2CCCCC2)(C(F)(F)F)C(=O)N1` (centres unmarked), for which the “hERG current change (%, negative = inhibition) at 1uM” value turned out to be 15.8%.

`COc1ccc(/C=N/NC(=O)c2ccc(Cl)cc2Cl)cc1COC(C)=O`: the “hERG current change (%, negative = inhibition) at 1uM” value worked out at 10.9%. Turning to `CCOC(=O)N1CCC(NC(=O)CN2C(=O)CCSc3ccccc32)CC1`, the “hERG current change (%, negative = inhibition) at 1uM” value is -0.183%.

As to `CCNc1nc(NCC)nc(N(C)/N=C/c2ccco2)n1`, the “hERG current change (%, negative = inhibition) at 1uM” value is on record as 5.61%. With `COc1ccc(NC(=O)CN(C)C(=O)c2cccc(S(=O)(=O)N3CCN(c4ccccc4)CC3)c2)cc1`, the “hERG current change (%, negative = inhibition) at 1uM” value is recorded as 12.4%. To `O=C(CN1CCN(CC(=O)Nc2ccccc2Cl)CC1)Nc1ccc(F)c(F)c1` belongs -74%; to `CC(=O)c1cccc(N2Cc3ccccc3C2=NC(=O)CCl)c1`, 14.2%; to `CC(Oc1ccc(Cl)cc1)C(=O)N1CCCc2ccccc21` (centres unmarked), 8.12%.

`CCN(CC)S(=O)(=O)c1ccc(S(=O)(=O)NCc2cccs2)cc1`: the “hERG current change (%, negative = inhibition) at 1uM” value is given as 5.97%. To `CCCCNc1ncnc2c1cnn2-c1ccc(C)cc1C` belongs 4.09%; to `Clc1nccnc1N/N=C/c1ccc(Br)cc1`, -14%.

Take `CS(=O)(=O)N(Cc1ccc(F)cc1)Cc1nc2ccccc2c(=O)[nH]1`: the “hERG current change (%, negative = inhibition) at 1uM” value is reported as 6.16%. With `O=C(O)CN1C(=O)NC2(CCOc3ccccc32)C1=O` (centres unmarked), the “hERG current change (%, negative = inhibition) at 1uM” value turned out to be 12.7%. To `COc1cccc(Cn2cccc(NC(=O)NCc3ccccc3)c2=O)c1` belongs 4.5%. As to `Cc1ccc(NC(=O)C(Cc2ccccc2)n2cccc2)cc1` (centres unmarked), the “hERG current change (%, negative = inhibition) at 1uM” value was 14.5%.

In the case of `c1ccc(CCCN2CCN(c3ccccn3)CC2)cc1`, the “hERG current change (%, negative = inhibition) at 1uM” value is listed as -6.2%. On to `Cc1c(Cl)cccc1Nc1nc(NCCO)c2ccccc2n1.Cl`, for which the “hERG current change (%, negative = inhibition) at 1uM” value turned out to be 5%. To `COc1ccc(CN(C)C(=O)COC(=O)c2ccc3c(c2)OCO3)cc1OC` belongs 6.77%; to `CSc1c(CC(=O)Nc2ccccc2)n(Cc2ccccc2)c2ccccc12`, 11.6%; to `CCC(=O)N(CCC1(C(C)C)CCOC(C)(C)C1)Cc1ccco1` (centres unmarked), 15.3%. Next, `Cc1ccc(C(=O)Oc2cccc(-n3cnnn3)c2)cc1`: 7.58%; `COc1ccc(NC(=O)CN2CCCN(S(=O)(=O)c3ccc(F)cc3)CC2)c(OC)c1`: -8.18%. Regarding `COc1cccc(C2/C(=C(/O)c3ccc4c(c3)CC(C)O4)C(=O)C(=O)N2CCCn2ccnc2)c1` (centres unmarked), the “hERG current change (%, negative = inhibition) at 1uM” value amounted to 4.78%.

For the molecule `CC(/C=C/c1ccccc1)=N/NC(=O)c1cnccn1`, the “hERG current change (%, negative = inhibition) at 1uM” value turned out to be 10.6%.

Turning to `Cc1ccc(C(=O)CSc2nnc(-c3ccccc3)o2)cc1`, the “hERG current change (%, negative = inhibition) at 1uM” value was 4.65%.

Turning to `COC(=O)c1ccc(NC(=O)c2ccccc2SC)cc1`, the “hERG current change (%, negative = inhibition) at 1uM” value was -4.31%. Next, `O=C(CSc1nc2ccccc2[nH]1)N1CCN(c2ccc(F)cc2)CC1`: -20%. Next, `CC(C)CC(=O)NC(=S)N1CCCCCC1`: 11.8%. To `COc1ccc(N2CCN(C(=O)c3cc(-c4ccc(F)cc4)[nH]c3C)CC2)cc1` belongs -16.6%; to `Cc1ccccc1-c1cc(C(=O)Nc2nc3c(s2)CCCC3)c2ccccc2n1`, 12.1%; to `CCCN(CC(=O)Nc1ccc(Cl)cc1Cl)C(=O)/C=C/c1cccc([N+](=O)[O-])c1`, 7.36%.

As for `C=CCn1c(=O)c(C#N)cc2c(=O)n3ccccc3nc21`, the “hERG current change (%, negative = inhibition) at 1uM” value is given as 9.4%. Next, `O=C(O)CCc1nn2cnc3sc4c(c3c2nc1=O)CCCC4`: 0.675%; `CN(C(=O)Cn1c(Cl)nc2c1c(=O)n(C)c(=O)n2C)C1CCS(=O)(=O)C1` (centres unmarked): 18.8%; `Cc1ccc(NC(=O)CSC2=NN3CCCC(=O)N=C3S2)c(C)c1`: 0.842%.

As for `O=C(O)CCN1C(=O)c2ccccc2C1=O`, the “hERG current change (%, negative = inhibition) at 1uM” value is 19.2%. Next, `CCN(CC)CCn1c(NCc2cccc(OC)c2OC)nc2ccccc21`: -9.21%.

As for `Cc1c(C(=O)OCC(=O)N2CC(=O)Nc3ccccc32)oc2ccccc12`, the “hERG current change (%, negative = inhibition) at 1uM” value came out at 23.9%. Regarding `Cc1ccc(C)c(OCC(O)CNC2CCCC2)c1.Cl` (centres unmarked), the “hERG current change (%, negative = inhibition) at 1uM” value is recorded as 16%.

Take `Cc1ccc(S(=O)(=O)N2CCC(C(=O)NCC3CC3)CC2)cc1`: the “hERG current change (%, negative = inhibition) at 1uM” value was found to be 12.7%. Next, `O=C(Nc1ccc(Br)cc1F)c1ccc2c(c1)OCCO2`: 12.1%; `CCCN(CC(=O)Nc1ccccc1OC)C(=O)c1cc(S(=O)(=O)NCc2ccccc2)ccc1C`: 5.6%. To `CC(=O)c1cccc(NC(=O)C2CCCN(S(=O)(=O)c3cccc4nonc34)C2)c1` (centres unmarked) belongs 14.1%. Next, `O=C(NC1CCCc2c1cnn2-c1ccccc1F)c1ccccn1` (centres unmarked): 6.83%; `Cc1nccn1CC(O)Cn1c2ccccc2c2ccccc21` (centres unmarked): 4.28%. For `Cc1cc2[nH]c3ccccc3c2cn1`, the “hERG current change (%, negative = inhibition) at 1uM” value turned out to be 3.72%. To `CCN1CCN(c2ccc([N+](=O)[O-])cc2C#N)CC1` belongs -49.8%. Next, `O=C(Nc1ccc(S(=O)(=O)Nc2ncccn2)cc1)c1nn(Cc2ccccc2)c(=O)c2ccccc12`: 12.9%. Next, `O=C(O)c1ccc2c(c1)nnn2C1CCCCC1`: 8.07%. As for `Brc1nnc2n1-c1ccccc1Sc1ccccc1-2`, the “hERG current change (%, negative = inhibition) at 1uM” value is -13.6%.

With `CCOc1cc(N2CCOCC2)c(OCC)cc1NC(=O)CN1C(=O)C2C3C=CC(C3)C2C1=O` (centres unmarked), the “hERG current change (%, negative = inhibition) at 1uM” value was 11.9%. Next, `COc1cc(/C=N/NC(=O)c2cccnc2)ccc1OS(=O)(=O)c1cc(C)ccc1C`: 5.73%; `COc1ccc(NC(=O)CSc2ccc3nnc(-c4cccnc4)n3n2)cc1OC`: 5.21%; `COc1cc(/C(C)=N/N2CCOCC2)cc(OC)c1OC`: 13.6%. Next, `O=C(Nc1ccc(-n2cnnn2)cc1)C1CCCCC1`: 4.56%; `O=C(CSCc1nc2c(nnn2Cc2ccc(F)cc2)c(=O)[nH]1)Nc1c(Cl)cc(Cl)cc1Cl`: 11.6%. Next, `Cc1nnc(SCC(=O)N(CCC#N)c2ccc3c(c2)OCCO3)s1`: 6.07%; `Cc1cc(=O)[nH]c(NCc2ccc(Cl)cc2)n1`: 14.1%.

On to `Cc1cc(C)n(-c2nc3sc4c(c3c3nnc(SC(C)C)n23)CC(C)(C)OC4)n1`, for which the “hERG current change (%, negative = inhibition) at 1uM” value worked out at 4.62%. Next, `COc1cccc(NC(=O)C2CCN(S(=O)(=O)c3ccc4[nH]c(=O)ccc4c3)CC2)c1`: -9.04%. On to `Cc1ccc2cc(CN(Cc3ccc(F)cc3)Cc3nnnn3C3CCCC3)c(=O)[nH]c2c1`, for which the “hERG current change (%, negative = inhibition) at 1uM” value was determined as 8.66%. To `O=C(Nc1cccc(F)c1)C1CCN(C(=O)c2ccc(Cl)cc2)CC1` belongs -30.5%.

Take `O=C(c1ccco1)N1CCN(C(=S)NCc2ccc(F)cc2)CC1`: the “hERG current change (%, negative = inhibition) at 1uM” value is reported as -3.27%.

As for `O=C(O)CN1C(=O)C2C3CC(C2C1=O)C1C(c2ccc(Cl)cc2)c2sc(=O)[nH]c2SC31` (centres unmarked), the “hERG current change (%, negative = inhibition) at 1uM” value amounted to 4.08%. As for `CC1=C(C(=O)OCc2ccccc2)C(c2cccs2)NC(=O)N1CCCC(=O)O` (centres unmarked), the “hERG current change (%, negative = inhibition) at 1uM” value amounted to 15.5%.

Take `O=C(Nc1nc2c(F)cc(F)cc2s1)C1CC1`: the “hERG current change (%, negative = inhibition) at 1uM” value was 13.1%. Next, `CCc1nnc(NC(=O)c2ccncc2)s1`: 9.59%; `Cc1ccc(NC(=O)N2CCC(c3nc4c(nnn4Cc4c(F)cccc4Cl)c(=O)[nH]3)CC2)cc1`: 8.47%.

On to `COc1cccc(-c2nc3c(c(SCC(=O)N4CCOCC4)n2)Cc2c(CO)cnc(C)c2O3)c1`, for which the “hERG current change (%, negative = inhibition) at 1uM” value was 5.11%. Next, `Cc1c(C(=O)Nc2ccc3c4c(cccc24)CC3)cccc1[N+](=O)[O-]`: 10.3%.

For `COc1ccc(CCNS(=O)(=O)c2cn(C)nc2C)cc1`, the “hERG current change (%, negative = inhibition) at 1uM” value was 19.3%. Next, `Cc1ccccc1NC(=O)c1sc(NC(=O)COc2ccccc2)c(C#N)c1C`: 13.6%. As to `CC(C)N(Cc1ccccc1)C(=O)COC(=O)c1ccc2c(c1)OCCO2`, the “hERG current change (%, negative = inhibition) at 1uM” value was 11.4%. Next, `Cn1ccc(=S)c2ccccc21`: 11.9%; `O=S(=O)(c1ccc(SCCOc2ccc(Cl)cc2)nc1)N1CCCC1`: -4.08%; `CC(C)n1c(O)c(C=NCc2cccnc2)c(=O)[nH]c1=S`: 7.59%. Next, `Cc1c(Nc2nc3ccccc3nc2NS(=O)(=O)c2cccc(Cl)c2)c(=O)n(-c2ccccc2)n1C`: 3.99%; `CCN(C(=O)CCCC(=O)N(CC)c1ccccc1)c1ccccc1`: 18.4%; `C=CCn1c(SCC(N)=O)nnc1-c1cc(Br)ccc1O`: -2.7%. Regarding `COC(=O)CCCC(=O)N1CCCC(CNS(=O)(=O)c2ccc(OC)cc2)C1` (centres unmarked), the “hERG current change (%, negative = inhibition) at 1uM” value worked out at 10.8%. For `Cc1ccccc1CS(=O)(=O)CCC(=O)O`, the “hERG current change (%, negative = inhibition) at 1uM” value is on record as 5.18%. On to `O=C(NCCCl)Nc1ccccc1OCCOc1ccccc1NC(=O)NCCCl`, for which the “hERG current change (%, negative = inhibition) at 1uM” value is on record as -0.97%.

Turning to `COc1ccc(OCC(O)Cn2c(Nc3ccccc3)nc3c2c(=O)n(C)c(=O)n3C)cc1` (centres unmarked), the “hERG current change (%, negative = inhibition) at 1uM” value was found to be 6.41%. Regarding `COC(=O)c1[nH]c2ccc(C)cc2c1NC(=O)CCN1CCN(Cc2ccc3c(c2)OCO3)CC1`, the “hERG current change (%, negative = inhibition) at 1uM” value is reported as -33%.

Take `O=C(c1csc2ccccc12)N1CCCCCC1`: the “hERG current change (%, negative = inhibition) at 1uM” value stood at 14.3%. Next, `COc1ccc(C2=NS(=O)(=O)N(C)C(C(=O)NC3CCCC3)=C2)cc1OC`: -9.73%; `Cc1occc1C(=O)Nc1ccc([N+](=O)[O-])cc1Br`: 13.6%; `Cc1ccc(N2CC(C(=O)N3CCN(c4ccccc4)CC3)CC2=O)cc1` (centres unmarked): -5.57%. Next, `Cc1cc(C)c(C#N)c(SCc2ccccc2)n1`: 14%.
